The campaign covered roughly 280,000 compounds. About 820 (0.29%) were called active. The shares of active, inactive and inconclusive entries below differ from those in the screen. Calls come from the whole dose curve; as a rule, active = well fitted curve in either direction with a large enough effect; inconclusive = small, poorly fitted or top-dose-only effect; inactive = flat fitted curve, though single readings scatter. No potency is given beside an inconclusive call; the fits are too rough.
Test: Total Fluorescence Counterscreen for Inhibitors of the Interaction of Thyroid Hormone Receptor and Steroid Receptor Coregulator 2
Details: TRb/SRC2 Texas Red total fluorescence interference; series mostly up to 106 µM
Procedure, shortened: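 Human TRβ ligand-binding domain (0.6 uM) and Texas Red SRC2 peptide (20 nM) in Tris buffer with 1 uM T3 and 5% DMSO were incubated with pinned compound for 5 hr at ambient temperature. Total fluorescence was computed as S + 2P (555/632 nm).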
Potency is the fitted concentration of half-maximal effect; tags give direction and shape of the fitted curve or compound fluorescence and quenching.

| Structure (SMILES) | Potency |
| --- | --- |
| COc1ccc(C(=O)NC2(C(F)(F)F)C(=O)NC(C)=C2C#N)cc1 (stereo unspecified) | inconclusive [falling, full curve, poor fit] |
| CN1c2ccsc2C(O)=C(C(=S)Nc2ccc(F)c(Cl)c2)S1(=O)=O | inactive |
| Cc1cc(C)cc(N2C(=O)CC(c3ccc(C(F)(F)F)cc3)C3=C2COC3=O)c1 (stereo unspecified) | inconclusive [quencher, full curve] |
| Cc1cccc(NC(=O)CSc2nc(-c3cccs3)cc(C(F)(F)F)c2C#N)c1 | inconclusive [quencher, full curve] |
| CCOC(=O)c1noc2ncn(CC(=O)Nc3ccccc3OC)c(=O)c12 | inconclusive [falling, partial curve, poor fit] |
| O=C(Nc1ccc(N2CCOCC2)cc1)c1ccc2nc(-c3ccco3)c(-c3ccco3)nc2c1 | inactive |
| CCOC(=O)c1c(NC(=O)c2ccc(F)cc2)sc2c1CCC(CC)C2 (stereo unspecified) | inconclusive [falling, full curve, poor fit] |
| COc1cc(NC(=O)CN(c2cc(C)cc(C)c2)S(=O)(=O)c2c(C)[nH]c(=O)[nH]c2=O)cc(OC)c1 | inconclusive [quencher, full curve] |
| CC(=O)Nc1cc(C(=O)N(C)Cc2ccco2)ccc1Sc1ccc(Cl)cc1 | inconclusive [falling, partial curve, poor fit] |
| Cn1cc(-c2cc3n(n2)CCC(=O)N3CCCC(=O)NCc2ccccc2Cl)c2ccccc21 | inconclusive [falling, full curve, poor fit] |
| Cc1nc(C)c(CCNS(=O)(=O)c2ccc(F)cc2)s1 | inconclusive [falling, partial curve, poor fit] |
| Cc1ccc(C(=O)c2cn(Cc3ccccc3C)c3nc(C)ccc3c2=O)cc1 | inactive |
| COc1ccc(C2C(=O)N(C3CCCCC3)CC(=O)N2C2CCCC2)cc1 (stereo unspecified) | inactive |
| COc1ccc(-c2nc(SCC(=O)NC3CCCC3)c(-c3ccc(C)cc3)[nH]2)cc1OC | inactive |
| Cc1ccc(C)c(S(=O)(=O)N2CCN(CC(=O)Nc3sccc3C#N)CC2)c1 | inconclusive [quencher, full curve] |
| C=C(C)CSc1cc(C)c(C#N)c2nc3ccccc3n12 | inactive |
| O=C(NCc1ccc(Cl)cc1)c1ccc(CSCc2cccc(Cl)c2)o1 | inconclusive [falling, full curve, poor fit] |
| COc1ccc(N2CCN(C(=O)c3c(C)oc4ncnc(N5CCCCC5)c34)CC2)cc1 | inconclusive [falling, partial curve, poor fit] |
| O=c1[nH]c2ccc(NCc3ccc(-c4cccc(Cl)c4)o3)cc2[nH]1 | inconclusive [falling, partial curve, poor fit] |
| CCOc1ccc(S(=O)(=O)N2CCN(c3cc(Cl)ccc3Cl)CC2)c2ccccc12 | inconclusive [falling, full curve, poor fit] |
| Cc1ccc(N=C2NC(=O)/C(=C/C=C/c3ccco3)S2)cc1 | active: 39.8 µM [quencher] |

| Structure (SMILES) | Potency |
| --- | --- |
| O=C(CSc1ccc(-c2ccccn2)nn1)N1CCCCC1 | inactive |
| O=C(Cn1cc(S(=O)(=O)Cc2ccccc2Cl)c2ccccc21)NCc1ccccc1Cl | inconclusive [quencher, full curve] |
| Cc1ccccc1C1CC(=O)Oc2cc(O)ccc21 (stereo unspecified) | active: 100 µM [fluorescent] |
| CCOC(=O)N/N=C/c1ccc(N2CCOCC2)s1 | inconclusive [falling, partial curve, poor fit] |
| COc1ccc(CCNC(=O)CCn2c(=O)c3ccccc3n(CC(=O)Nc3ccccc3F)c2=O)cc1OC | inconclusive [falling, full curve, poor fit] |
| CCOc1ccccc1NC(=O)Cn1c(=O)n(CCC(C)C)c(=O)c2cccnc21 | inconclusive [falling, full curve, poor fit] |
| CCOc1ccc(NC(=O)Cc2csc(COc3cccc(C)c3)n2)cc1 | inconclusive [falling, full curve, poor fit] |
| C=C1CC[C@H](O)C/C1=C/C=C1\CCC[C@]2(C)C([C@H](C)CCCC(C)(C)O)CC[C@@H]12 (stereo partly specified) | inactive |
| Cc1cccc(NC(=O)CN2C(=O)N/C(=C/c3cc(C)n(-c4cccnc4)c3C)C2=O)c1 | inactive |
| COc1ccccc1NC(=O)CSc1nc2c(oc3ccccc32)c(=O)n1-c1ccc(C)cc1 | inconclusive [quencher, full curve] |
| COc1ccc(-c2c(C)nn3c4c(cnc23)C(=O)CC(c2ccc(C)cc2)C4)cc1 (stereo unspecified) | active: 14.1 µM [quencher] |
| COCCN(C(=S)Nc1cccc(OC)c1)C(C)c1cccs1 (stereo unspecified) | inconclusive [falling, partial curve, poor fit] |
| O=C1CCCC(O)=C1N=Nc1ccc2c(c1)OCO2 | inactive |
| CC(=O)OC[C@H]1O[C@@H](CCO/N=C2/[C@H]3O[C@@H]3[C@@H](O)[C@H]3[C@H]2CCn2c(=O)n(-c4ccccc4)c(=O)n23)C=C[C@@H]1OC(C)=O | inconclusive |
| COc1ccc(-c2cc(C(F)(F)F)nc(SCC(=O)N3CCOCC3)n2)cc1OC | inactive |
| Cn1cc([N+](=O)[O-])c(C(=O)Nc2ccc(-c3nc4ccccc4o3)cc2)n1 | inconclusive [quencher, partial curve] |
| CCOC(=O)c1c(NC(=O)c2noc3c2CC(C(C)(C)C)CC3)sc2c1CCCC2 (stereo unspecified) | inconclusive [falling, full curve, poor fit] |
| CCOC(=O)c1nnc2c(-c3ccc(OC)cc3)c(C)nn2c1N | inconclusive [quencher, full curve] |
| Cc1ccc2scc(N3CCC(C)CC3)c(=O)c2c1 | inconclusive [falling, partial curve, poor fit] |
| CCOc1ccc(CCNC(=O)c2nc(-c3cccc(F)c3)n3c2CCCCC3)cc1OCC | active: 63.1 µM [quencher] |

Reference: PubChem BioAssay AID1479 (National Center for Advancing Translational Sciences (NCATS), 2009)
